Measured values taken from PubChem BioAssay AID1030 (National Center for Advancing Translational Sciences (NCATS), 2008).
The whole screen tested about 220,000 compounds, of which about 16,000 (7.3%) were called active. The inconclusive results got no clear call from the source; some entries with a clear call stand among them for comparison. Calls come from the whole dose curve; as a rule, active = well fitted inhibition curve with a large enough effect (not every such curve was filed as active); inconclusive = small, poorly fitted or top-dose-only effect, or another doubt; inactive = no such curve, though single readings can be large or run the other way. No potency is given beside an inconclusive call; the fits are too rough.

target: Aldehyde dehydrogenase 1A1 (Homo sapiens) (UniProt P00352); assay: qHTS Assay for Inhibitors of Aldehyde Dehydrogenase 1 (ALDH1A1); details: Purified ALDH1A1, NADH fluorescence, propionaldehyde substrate; series mostly up to 75.3 µM;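 for activity, negative = inhibition: plate controls were no enzyme wells and a reference inhibitor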
Potency is the fitted concentration of half-maximal effect; tags give direction and shape of the fitted curve.

Sequence of UniProt P00352 (P00352 whole entry, looked up): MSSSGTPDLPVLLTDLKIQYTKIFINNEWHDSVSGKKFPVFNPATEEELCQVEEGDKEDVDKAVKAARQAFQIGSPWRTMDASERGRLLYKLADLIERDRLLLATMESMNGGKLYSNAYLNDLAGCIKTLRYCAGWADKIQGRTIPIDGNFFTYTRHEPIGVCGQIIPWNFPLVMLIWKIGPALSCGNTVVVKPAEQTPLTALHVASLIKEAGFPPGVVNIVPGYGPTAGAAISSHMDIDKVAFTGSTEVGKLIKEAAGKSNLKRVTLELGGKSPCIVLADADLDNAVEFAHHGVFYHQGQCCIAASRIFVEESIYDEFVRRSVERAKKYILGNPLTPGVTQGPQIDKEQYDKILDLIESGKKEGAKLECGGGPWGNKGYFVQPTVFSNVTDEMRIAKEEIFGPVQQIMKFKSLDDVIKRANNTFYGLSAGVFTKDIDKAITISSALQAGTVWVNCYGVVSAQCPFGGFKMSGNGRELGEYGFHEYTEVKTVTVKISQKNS

Row | SMILES | Potency | activity, negative = inhibition
1 | Cc1ccc2c(c1)C(=NC1CCCCC1)c1cc3ccccc3nc1-2 | inconclusive [inhibitor, single point] | –
2 | CC(=O)OCC1=C(C(=O)O)N2C(=O)C(NC(=O)CCn3nc(C(F)(F)F)c(Br)c3C3CC3)C2SC1 (stereo not given) | inconclusive [inhibitor, single point] | –
3 | O=C1C=C(c2ccccc2)C[C@H](c2cccs2)[C@H]1n1cnc([N+](=O)[O-])c1 | inconclusive [inhibitor, single point] | –
4 | COC(=O)c1[nH]c2cccc(Cl)c2c1NC(=O)CN1CCCCC1C (stereo not given) | inconclusive [inhibitor, single point] | –
5 | CCOC(=O)C(C)On1c(-c2ccccc2)nc2ccc([N+](=O)[O-])cc21 (stereo not given) | inconclusive [inhibitor, single point] | –
6 | CCOC(=O)C1=C(c2ccccc2)NC(=S)NC1c1cc([N+](=O)[O-])ccc1OC (stereo not given) | active: 3.98 µM | –
7 | Cc1ccc(C(=O)N2CCCC(CCC(=O)N3CCN(c4ccccn4)CC3)C2)s1 (stereo not given) | inconclusive [inhibitor, single point] | –
8 | CCOC(=O)c1c2ccc(OCC(=O)NN)cc2n2ccccc12 | inconclusive [inhibitor, partial curve] | –
9 | O=C(O)c1ccc(N[C@H](c2ccccc2)c2ccc3cccnc3c2O)cc1 | active: 3.98 µM | –
10 | OCCC1CN(Cc2ccc3c(c2)CCO3)CCN1Cc1ccc(F)cc1 (stereo not given) | inactive | –
11 | Cc1sc(NC(=O)Nc2ccccc2)c(C(N)=O)c1C | active: 12.6 µM | –
12 | c1ccc(-c2nnc3sc(-c4ccncc4)nn23)cc1 | inconclusive [inhibitor, single point] | –
13 | O=C(COc1ccc2c(c1)CCC2)NCc1ccccc1 | inactive | –
14 | CC(=O)N1CCN(C(=O)CC2OC(=O)c3ccccc32)CC1 (stereo not given) | active: 5.01 µM | –
15 | O=C(COc1ccc([N+](=O)[O-])cc1)Nc1ccccc1N1CCCC1 | inconclusive [inhibitor, single point] | –
16 | COC(=O)[C@@H]1[C@@H](C)N(CCc2cc(OC)c(OC)c(OC)c2)C(=O)N[C@H]1c1ccccc1 | – | inactive: 7.98% [at 13.5 µM]
17 | Cc1cccc(N2CCN(C(=O)c3ccc(NS(=O)(=O)c4c(C)noc4C)cc3)CC2)c1C | active: 14.1 µM | –
18 | C[C@H]1O[C@@H](O[C@H]2[C@@H](O)C[C@H](O[C@H]3[C@@H](O)C[C@H](O[C@H]4CC[C@@]5(C)[C@H](CC[C@@H]6[C@@H]5C[C@@H](O)[C@]5(C)[C@@H](C7=CC(=O)OC7)CC[C@]65O)C4)O[C@@H]3C)O[C@@H]2C)C[C@H](O)[C@@H]1O | inactive | –
19 | CCOc1ccc(-c2[nH]ncc2Oc2ccccc2OCC)c(O)c1 | inconclusive [inhibitor, single point] | –
20 | CCn1c(C(=O)N2CCC(Cc3ccccc3)CC2)cc2sccc21 | inconclusive [inhibitor, partial curve] | –
21 | Cn1c(=O)c2nc3ccccc3nc2n(C)c1=O | inconclusive [inhibitor, single point] | –
22 | COc1ccccc1N=C(C)C1=C(O)CSC1=O | inconclusive [inhibitor, single point] | –
23 | Cc1ccsc1/C=N/NC(=O)c1ccc(Cn2cc(Br)cn2)o1 | inactive | –

Row | SMILES | Potency | activity, negative = inhibition
24 | CCc1ccc(NC(=O)C(C)OC(=O)CCC(=O)c2cccs2)cc1 (stereo not given) | inactive | –
25 | Cc1ccc(CN(C)CC(=O)Nc2cccc([N+](=O)[O-])c2)o1 | inactive | –
26 | COC(=O)c1c(NC(=O)C2CCCCC2C(=O)O)sc2c1CCCCC2 (stereo not given) | inconclusive [inhibitor, single point] | –
27 | O=c1c2ccccc2n(Cc2ccccc2F)c(=O)n1Cc1ccccc1F | inconclusive [inhibitor, single point] | –
28 | CCC(Nc1ccc(OC)cc1)C(=O)N/N=C/c1ccc([N+](=O)[O-])cc1 (stereo not given) | inconclusive [inhibitor, single point] | –
29 | Cc1ccc(CNC(=O)/C=C/c2cccs2)cc1 | inconclusive [inhibitor, partial curve] | –
30 | Cc1ccc(C2CC(=O)NC(SCc3ccccc3)=C2C#N)cc1 (stereo not given) | inconclusive [inhibitor, partial curve] | –
31 | O=C(CNCc1ccco1)Nc1ccc(N2CCCCCC2)cc1 | active: 35.5 µM | –
32 | C=CCn1c(SCc2nc3ccccc3nc2C)nnc1-c1ccoc1C | active: 1.58 µM | –
33 | COc1ccc(CNC(=O)C(=O)NCc2cccnc2)cc1 | inactive | –
34 | CCOC(=O)C1(Cc2ccc(Cl)cc2)CCN(Cc2nccn2CC)CC1 | inactive | –
35 | Cc1cccc(N2C(=O)CCC2=O)n1 | inactive | –
36 | O=c1c(Cc2ccc(Cl)cc2Cl)c(O)ccn1Cc1ccc(Cl)cc1 | inconclusive [inhibitor, partial curve] | –
37 | Cc1ccc2cn[nH]c2c1NC(=S)NC(=O)c1ccccc1 | inconclusive [inhibitor, single point] | –
38 | CC1CN(C2CCN(S(=O)(=O)c3ccc(F)cc3)CC2)CC(C)O1 (stereo not given) | active: 25.1 µM | –
39 | NC(CO)c1cn([C@@H](CCC(=O)O)C(=O)N2CCNCC2)nn1 (stereo not given in full) | inactive | –
40 | Cc1ccc(C(=O)Nc2cc([N+](=O)[O-])ccc2C)cc1 | inactive | –
41 | O=C(COC(=O)[C@@H]1CC(O)CN1S(=O)(=O)c1ccc([N+](=O)[O-])cc1)NC12CC3CC(CC(C3)C1)C2 (stereo not given in full) | inconclusive [inhibitor, partial curve] | –
42 | Cc1ccc(S(=O)(=O)NCCSc2nnnn2-c2ccccc2)cc1 | active: 1 µM | –
43 | O=C(COC(=O)c1ccccc1[N+](=O)[O-])c1ccc(C2CCCCC2)cc1 | inconclusive [inhibitor, partial curve] | –
44 | COC(=O)C1=C(C)N(C2CCCCC2)C(=O)C1 | inconclusive [inhibitor, full curve, poor fit] | –
45 | CC1=C(C(=O)Nc2ccccc2)C(c2ccc(Cl)cc2)n2c(s/c(=C/c3cccc(OCC(=O)O)c3)c2=O)=N1 (stereo not given) | inactive | –
